Source: the supplement of paper PMC10037445
In all, about 2,900 compounds were measured (“IRF Lucia reporter activity, fold change vs agonist alone”: median about 0.9, highest 2% from about 2.8 on). The list shows a part of the results.

Legend:
[1] = test system: RAW-Dual; assay: IRF Lucia reporter activity, fold change vs agonist alone; cytotoxicity flag (confluency mask): not cytotoxic; higher = enhanced IRF activity
Summary of the method: (§1)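 RAW-Dual macrophages were seeded in DMEM at 50,000 cells/well in 384-well plates, given 50 nL of library stock by pin tool, and given a PRR agonist 1 h later. Plates were held at 37 °C, 5% CO2 for 20 hours, after which supernatant was read for IRF by QuantiLuc luminescence and for NF-κB by QuantiBlue absorbance at 620 nm. Reporter activity is expressed as fold change over wells that received agonist alone. A well was called cytotoxic when IncuCyte confluency fell below 70% of agonist controls in both mask sets.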

[2] = test system: RAW-Dual; assay: IRF Lucia reporter activity, fold change vs agonist alone; cytotoxicity flag (confluency mask): cytotoxic (confluency <70% of control); higher = enhanced IRF activity
Summary of the method: as §1

[3] = test system: RAW-Dual; assay: IRF Lucia reporter activity, fold change vs agonist alone; higher = enhanced IRF activity; details: agonist: MPLA (TLR4) […]
Summary of the method: as §1

[4] = agonist: 3'3'-cGAMP (STING) 10 ug/mL
[5] = library stock concentration (final ~1000-fold dilution): 10 mM, cytotoxicity flag (confluency mask): not cytotoxic
[6] = library stock concentration (final ~1000-fold dilution): 10 mM, cytotoxicity flag (confluency mask): cytotoxic (confluency <70% of control)

Nc1nc(NC2CC2)cc(-c2cccc(Cl)c2Cl)n1 (library stock concentration (final ~1000-fold dilution): 10 mM)
IRF Lucia reporter activity [1, 4]: 0.986 | IRF Lucia reporter activity ([1]; agonist: LPS (TLR4) 0.1 ug/mL): 0.661

CC(C)=CC[C@@H](O)C1=CC(=O)c2c(O)ccc(O)c2C1=O (library stock concentration (final ~1000-fold dilution): 10 mM)
IRF Lucia reporter activity [2, 4]: 0.0149 | IRF Lucia reporter activity ([2]; agonist: LPS (TLR4) 0.1 ug/mL): 0.0176

CN(C)CC/C=C1\c2ccccc2COc2ccccc21.Cl (library stock concentration (final ~1000-fold dilution): 10 mM)
IRF Lucia reporter activity [1, 4]: 0.7 | IRF Lucia reporter activity ([1]; agonist: LPS (TLR4) 0.1 ug/mL): 0.94

CN(C)CC/C=C1\c2ccccc2COc2ccccc21.Cl
IRF Lucia reporter activity [3, 5]: 1.11

O=C(c1ccc(F)c(F)c1Nc1ccc(I)cc1F)N1CC(O)(C2CCCCN2)C1 (stereo unspecified) (library stock concentration (final ~1000-fold dilution): 10 mM)
IRF Lucia reporter activity [2, 4]: 0.077 | IRF Lucia reporter activity ([2]; agonist: LPS (TLR4) 0.1 ug/mL): 0.902

CCc1cc2c(cc1N1CCC(N3CCOCC3)CC1)C(C)(C)c1[nH]c3cc(C#N)ccc3c1C2=O (library stock concentration (final ~1000-fold dilution): 10 mM)
IRF Lucia reporter activity [1, 4]: 0.992 | IRF Lucia reporter activity ([1]; agonist: LPS (TLR4) 0.1 ug/mL): 1.42

CCc1cc2c(cc1N1CCC(N3CCOCC3)CC1)C(C)(C)c1[nH]c3cc(C#N)ccc3c1C2=O
IRF Lucia reporter activity [3, 5]: 0.952

O=C(NCC1(c2nc(-c3ccccc3)cs2)CCOCC1)c1cccc(-c2noc(C(F)(F)F)n2)c1
IRF Lucia reporter activity [3, 5]: 1.01

O=C(NCC1(c2nc(-c3ccccc3)cs2)CCOCC1)c1cccc(-c2noc(C(F)(F)F)n2)c1 (library stock concentration (final ~1000-fold dilution): 10 mM)
IRF Lucia reporter activity [1, 4]: 0.449 | IRF Lucia reporter activity ([1]; agonist: LPS (TLR4) 0.1 ug/mL): 0.984

CCN(C)S(=O)(=O)Nc1ccc(F)c(C(=O)c2c[nH]c3ncc(-c4cnc(C5CC5)nc4)cc23)c1F (library stock concentration (final ~1000-fold dilution): 10 mM)
IRF Lucia reporter activity [1, 4]: 0.0563 | IRF Lucia reporter activity ([1]; agonist: LPS (TLR4) 0.1 ug/mL): 0.409

CC12CCC(O)CC1=CCC1C2CCC2(C)C(n3cnc4ccccc43)=CCC12 (stereo unspecified)
IRF Lucia reporter activity [3, 5]: 0.987

CC12CCC(O)CC1=CCC1C2CCC2(C)C(n3cnc4ccccc43)=CCC12 (stereo unspecified) (library stock concentration (final ~1000-fold dilution): 10 mM)
IRF Lucia reporter activity [1, 4]: 0.655 | IRF Lucia reporter activity ([1]; agonist: LPS (TLR4) 0.1 ug/mL): 0.794

COc1cc2c(Nc3ccc(Br)cc3F)ncnc2cc1OCC1CCN(C)CC1
IRF Lucia reporter activity ([3]; library stock concentration (final ~1000-fold dilution): 2 mM, cytotoxicity flag (confluency mask): not cytotoxic): 1.08

COc1cc2c(Nc3ccc(Br)cc3F)ncnc2cc1OCC1CCN(C)CC1 (library stock concentration (final ~1000-fold dilution): 2 mM)
IRF Lucia reporter activity [1, 4]: 0.161 | IRF Lucia reporter activity ([1]; agonist: LPS (TLR4) 0.1 ug/mL): 0.864

CC12CCC3c4ccc(O)cc4CCC3C1CC(O)C2O (stereo unspecified)
IRF Lucia reporter activity [3, 5]: 1.06

CC12CCC3c4ccc(O)cc4CCC3C1CC(O)C2O (stereo unspecified) (library stock concentration (final ~1000-fold dilution): 10 mM)
IRF Lucia reporter activity [1, 4]: 0.556 | IRF Lucia reporter activity ([1]; agonist: LPS (TLR4) 0.1 ug/mL): 0.982

CCOC(=O)C1=C(COCCN)NC(C)=C(C(=O)OC)C1c1ccccc1Cl.O=S(=O)(O)c1ccccc1 (stereo unspecified)
IRF Lucia reporter activity [3, 6]: 3.36

CCOC(=O)C1=C(COCCN)NC(C)=C(C(=O)OC)C1c1ccccc1Cl.O=S(=O)(O)c1ccccc1 (stereo unspecified) (library stock concentration (final ~1000-fold dilution): 10 mM)
IRF Lucia reporter activity [2, 4]: 1.02 | IRF Lucia reporter activity ([2]; agonist: LPS (TLR4) 0.1 ug/mL): 3.19

Cc1ccc(NC(=O)c2ccc(CN3CCN(C)CC3)cc2)cc1Nc1nccc(-c2cccnc2)n1 (library stock concentration (final ~1000-fold dilution): 10 mM)
IRF Lucia reporter activity [1, 4]: 0.549 | IRF Lucia reporter activity ([1]; agonist: LPS (TLR4) 0.1 ug/mL): 0.944

Cc1ccc(NC(=O)c2ccc(CN3CCN(C)CC3)cc2)cc1Nc1nccc(-c2cccnc2)n1
IRF Lucia reporter activity [3, 5]: 1.29

CCN(CC)CCOC(=O)C(Cc1cccc2ccccc12)CC1CCCO1.O=C(O)C(=O)O (stereo unspecified)
IRF Lucia reporter activity [3, 5]: 1.25

CCN(CC)CCOC(=O)C(Cc1cccc2ccccc12)CC1CCCO1.O=C(O)C(=O)O (stereo unspecified) (library stock concentration (final ~1000-fold dilution): 10 mM)
IRF Lucia reporter activity [1, 4]: 0.458 | IRF Lucia reporter activity ([1]; agonist: LPS (TLR4) 0.1 ug/mL): 1.16

CC(C)(O)c1cc(Nc2cc(Oc3cn(C4CC4)nc3C3CCOCC3)ccn2)ccn1 (library stock concentration (final ~1000-fold dilution): 10 mM)
IRF Lucia reporter activity [1, 4]: 1.14 | IRF Lucia reporter activity ([1]; agonist: LPS (TLR4) 0.1 ug/mL): 1.53

Cc1c(C(=O)NN2CCCCC2)nn(-c2ccc(Cl)cc2Cl)c1-c1ccc(Cl)cc1 (library stock concentration (final ~1000-fold dilution): 10 mM)
IRF Lucia reporter activity [1, 4]: 0.269 | IRF Lucia reporter activity ([1]; agonist: LPS (TLR4) 0.1 ug/mL): 1.25

Cc1c(C(=O)NN2CCCCC2)nn(-c2ccc(Cl)cc2Cl)c1-c1ccc(Cl)cc1
IRF Lucia reporter activity [3, 5]: 1.15

CC1=C(C(=O)Nc2ccc3[nH]ncc3c2)C(c2ccc(F)cc2)NC(=O)N1 (stereo unspecified) (library stock concentration (final ~1000-fold dilution): 10 mM)
IRF Lucia reporter activity [1, 4]: 0.535 | IRF Lucia reporter activity ([1]; agonist: LPS (TLR4) 0.1 ug/mL): 0.76

COc1cc2c(c(OC)c1OC)-c1c(cc3c(c1OC)OCO3)CC(C)C(C)C2 (stereo unspecified)
IRF Lucia reporter activity [3, 5]: 1.12

CCOC(=O)c1cnc2ccc(-c3cncc(NS(=O)(=O)c4ccccc4)c3)cn12
IRF Lucia reporter activity [3, 6]: 4.46

CCOC(=O)c1cnc2ccc(-c3cncc(NS(=O)(=O)c4ccccc4)c3)cn12 (library stock concentration (final ~1000-fold dilution): 10 mM)
IRF Lucia reporter activity [2, 4]: 0.284 | IRF Lucia reporter activity ([2]; agonist: LPS (TLR4) 0.1 ug/mL): 4.78
